Data published in PubChem BioAssay (NCATS).
Inconclusive results, whose numbers are uncertain, are shown with a selection of clear calls. No potency is given beside an inconclusive call; the fits are too rough. Calls of active or inactive are those of the source. Calls follow the shape of the dose curve; as a rule, active = well fitted curve in the direction sought with a large enough effect; inconclusive = small, poorly fitted or top-dose-only effect, or another doubt; inactive = no such curve, though single readings can be large; an effect the other way counts as inactive or inconclusive.

Tested on: Zika virus NS2B-NS3 protease (linked construct)
Assay: Primary screen NINDS Rhodamine qHTS for Zika virus inhibitors (AID 1347160); also: nearly all actives have a fitted effect of over 55% in size; as to activity change, negative = inhibition: % is scaled to controls: 0 for no effect and ±100 for the full control effect
Settings: purified NS2B-NS3 protease, Rhodamine110 substrate fluorescence; series mostly up to 57.1 µM; activity change, negative = inhibition: at the top concentration
Procedure, shortened: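 Aprotinin served as in-plate control. Conditions: 25 nM linked NS2B-NS3, pH 8.0 Tris buffer, titrated compounds, 15 min preincubation and 15 min reaction with 1.5 microM Rhod110 substrate at room temperature.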
Potency is read from the fitted curve at half-maximal effect; tags tell the direction and shape of the fitted curve.

Row | Compound | activity change, negative = inhibition | Potency
1 | CC(C)(N)c1ccc(-c2nc3ccccc3nc2-c2ccccc2)cc1 | inactive: 107% | –
2 | O=C(O)c1ccc2c(c1)nc(Nc1cccc(Cl)c1)c1ccncc12 | – | inconclusive [inhibitor, single point]
3 | COc1cc2c(cc1-c1c(C)noc1C)ncc1[nH]c(=O)n([C@H](C)c3ccccn3)c12 | – | inconclusive [inhibitor, full curve]
4 | CCc1nc(-c2cccc(C)c2)c(-c2ccnc(NC(=O)c3ccccc3)c2)s1 | inactive: 31.8% | –
5 | Cc1cc(Nc2nc(N[C@@H](C)c3ccc(F)cc3)c(C#N)cc2F)n[nH]1 | – | inconclusive [inhibitor, partial curve, poor fit]
6 | Cc1ccccc1C(=O)c1ccc(Nc2ccc(Br)cc2N)cc1Cl | – | inconclusive [inhibitor, full curve]
7 | CC(C)(Sc1ccc(CCN(CCCCC2CCCCC2)C(=O)NC2CCCCC2)cc1)C(=O)O | – | active: 3.98 µM
8 | C[C@H](c1ccc(F)cc1CCCC(=O)O)N(c1cc(F)ccc1F)S(=O)(=O)c1ccc(Cl)cc1 | – | active: 14.1 µM
9 | CCCCCN(CCC12CC3CC(CC(C3)C1)C2)C(=O)NCCCc1ccncc1 | inactive: 10% | –

Target: Lysine-specific demethylase 5B (Homo sapiens) (UniProt Q9UGL1)
Sequence of UniProt Q9UGL1 (Q9UGL1 whole entry, looked up): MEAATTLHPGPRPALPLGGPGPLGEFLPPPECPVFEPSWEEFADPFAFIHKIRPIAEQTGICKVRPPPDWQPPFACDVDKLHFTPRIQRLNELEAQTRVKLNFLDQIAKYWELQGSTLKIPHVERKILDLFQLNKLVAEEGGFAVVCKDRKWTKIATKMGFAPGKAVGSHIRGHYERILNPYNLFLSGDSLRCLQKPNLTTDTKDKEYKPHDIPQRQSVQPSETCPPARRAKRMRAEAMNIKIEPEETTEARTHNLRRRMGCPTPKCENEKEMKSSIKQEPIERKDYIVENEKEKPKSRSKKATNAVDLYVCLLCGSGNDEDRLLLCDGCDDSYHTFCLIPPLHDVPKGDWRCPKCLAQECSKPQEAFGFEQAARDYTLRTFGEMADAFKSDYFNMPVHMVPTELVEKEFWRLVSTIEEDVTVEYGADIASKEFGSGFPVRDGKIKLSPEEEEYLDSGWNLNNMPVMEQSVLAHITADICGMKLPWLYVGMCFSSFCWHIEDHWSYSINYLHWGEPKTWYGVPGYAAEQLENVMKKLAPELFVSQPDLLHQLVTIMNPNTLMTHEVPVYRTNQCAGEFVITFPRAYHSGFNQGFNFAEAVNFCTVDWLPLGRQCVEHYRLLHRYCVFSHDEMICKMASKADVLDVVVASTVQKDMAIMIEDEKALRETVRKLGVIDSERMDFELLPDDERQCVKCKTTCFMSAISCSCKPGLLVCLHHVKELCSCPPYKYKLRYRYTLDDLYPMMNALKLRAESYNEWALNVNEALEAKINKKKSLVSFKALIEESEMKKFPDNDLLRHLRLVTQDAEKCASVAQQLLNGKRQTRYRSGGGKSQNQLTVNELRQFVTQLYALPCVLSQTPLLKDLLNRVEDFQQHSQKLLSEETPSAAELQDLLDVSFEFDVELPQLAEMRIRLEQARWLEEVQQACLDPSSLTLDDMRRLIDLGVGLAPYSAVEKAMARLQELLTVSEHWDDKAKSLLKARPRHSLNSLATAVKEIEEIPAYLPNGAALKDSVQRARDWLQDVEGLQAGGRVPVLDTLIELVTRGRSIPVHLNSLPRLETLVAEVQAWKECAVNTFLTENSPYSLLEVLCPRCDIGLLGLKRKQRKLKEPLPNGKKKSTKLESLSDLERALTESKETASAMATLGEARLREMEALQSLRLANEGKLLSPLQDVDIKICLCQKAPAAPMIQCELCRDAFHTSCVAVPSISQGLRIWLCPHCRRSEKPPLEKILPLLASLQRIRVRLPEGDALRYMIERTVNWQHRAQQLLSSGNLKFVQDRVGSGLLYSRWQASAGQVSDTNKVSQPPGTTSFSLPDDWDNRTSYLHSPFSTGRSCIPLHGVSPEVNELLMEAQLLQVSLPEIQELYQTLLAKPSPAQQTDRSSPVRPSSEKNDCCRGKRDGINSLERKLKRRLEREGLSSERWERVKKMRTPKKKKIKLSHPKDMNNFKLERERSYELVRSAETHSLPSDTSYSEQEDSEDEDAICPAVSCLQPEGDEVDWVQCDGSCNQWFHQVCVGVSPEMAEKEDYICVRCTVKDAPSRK
Assay: Optimization screen for KDM5B Histone Demethylases FDH coupled qHTS against the LOPAC library (AID 1347166); as to activity, negative = inhibition: 0% is about no effect
Settings: KDM5B demethylation, FDH-coupled NADH fluorescence (FDH is formaldehyde dehydrogenase); series mostly up to 57.5 µM; activity, negative = inhibition: at the top concentration
Procedure, shortened: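 KDM5BDeltaAP (200nM final) in 50mM HEPES pH 7.5, 0.01% Tween-20 was preincubated with compound for 10 min at room temperature. A substrate mix of 12.5uM H3K4Me3, 25uM a-ketoglutarate, ascorbate, Fe2+, NAD+ and formaldehyde dehydrogenase was then added. NADH fluorescence (340/450 nm) was read initially and after 30 min.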

Row | Compound | Potency | activity, negative = inhibition
10 | O=c1c(O)c(-c2ccc(O)cc2O)oc2cc(O)cc(O)c12 | inconclusive [inhibitor, partial curve, poor fit] | –
11 | CC(C)(Sc1ccc(CCN(CCCCC2CCCCC2)C(=O)NC2CCCCC2)cc1)C(=O)O | – | inactive: -1.5%
12 | COc1cc2nc(N(C)CCCNC(=O)C3CCCO3)nc(N)c2cc1OC (configuration not stated) | inconclusive [inhibitor, partial curve, poor fit] | –
13 | COc1cc2nc(N3CCN(C(=O)C4COc5ccccc5O4)CC3)nc(N)c2cc1OC (configuration not stated) | inconclusive [inhibitor, partial curve, poor fit] | –
14 | NC(=NCc1ccccc1)NC(=O)c1nc(Cl)c(N)nc1N | inconclusive [inhibitor, partial curve, poor fit] | –
15 | Oc1ccc(C2CNCCc3c2cc(O)c(O)c3Cl)cc1 (configuration not stated) | inconclusive [inhibitor, partial curve, poor fit] | –
16 | COc1ccc(CCN(C)CCCC(C#N)(c2ccc(OC)c(OC)c2)C(C)C)cc1OC (configuration not stated) | – | inactive: -6.88%
17 | NC(N)=NC(=O)c1nc(Cl)c(N)nc1N | inconclusive [inhibitor, partial curve, poor fit] | –
